Laboratory results as given in the supplement of paper PMC7125110.
± gives the standard error. This sample is rich in variants without activity.

B1: glmS ribozyme (parent)
chain: AUAAAAGCGCCAGAACUACAGAAAUGUAGUUGACGAGGAGGAGGUUUAUCGAAUUUUCGGCGGAUGCCUCCAAA

Legend:
Conditions in all cases: with glucosamine-6-phosphate
glucosamine-6-phosphate [1] = variants of: B1; assay: self-cleavage kobs at 40 uM GlcN6P; higher = faster cleavage; RNA array
Procedure, shortened: (§1)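 The measurements used barcoded ribozyme variants on sequenced MiSeq chips, transcribed in situ by E. coli RNA polymerase and tracked at 37 °C with a hybridised Cy3 probe. Glucosamine-6-phosphate, 40 μM to 10 mM in HEPES/KCl/Mg(OAc)2 buffer, was flowed in while tiles were imaged over ~14 h. Baseline-normalised signals, also normalised to non-cleaving reference variants, gave per-tile medians that were fit to one- or two-exponential decays for kobs. kcat and KM resulted from weighted Michaelis–Menten fits across concentrations.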

glucosamine-6-phosphate [2] = variants of: B1; assay: self-cleavage kobs at 10000 uM GlcN6P; higher = faster cleavage; RNA array
Procedure, shortened: as §1

glucosamine-6-phosphate [3] = variants of: B1; assay: self-cleavage kobs at 640 uM GlcN6P; higher = faster cleavage; RNA array
Procedure, shortened: as §1

glucosamine-6-phosphate [4] = variants of: B1; assay: self-cleavage kobs at 160 uM GlcN6P; higher = faster cleavage; RNA array
Procedure, shortened: as §1

glucosamine-6-phosphate [5] = variants of: B1; assay: self-cleavage kobs at 2500 uM GlcN6P; higher = faster cleavage; RNA array
Procedure, shortened: as §1

Variant	self-cleavage kobs at 40 uM GlcN6P (glucosamine-6-phosphate [1]) [s⁻¹]	self-cleavage kobs at 10000 uM GlcN6P (glucosamine-6-phosphate [2]) [s⁻¹]	self-cleavage kobs at 640 uM GlcN6P (glucosamine-6-phosphate [3]) [s⁻¹]	self-cleavage kobs at 160 uM GlcN6P (glucosamine-6-phosphate [4]) [s⁻¹]	self-cleavage kobs at 2500 uM GlcN6P (glucosamine-6-phosphate [5]) [s⁻¹]
G29A U49C	< 1e-05	< 1e-05			
A15G G38A C61U	< 1e-05				
A33G C58A U65A	< 1e-05	< 1e-05			
G35C U45C	< 1e-05		< 1e-05	< 1e-05	< 1e-05
A15U U45A A48U	< 1e-05				
G37C G44U	< 1e-05		< 1e-05		
G35C U54A	< 1e-05	< 1e-05	< 1e-05		< 1e-05
G29C C61A	< 1e-05				
G35U G37C U49G C61U C67A	< 1e-05	< 1e-05			
U31A C61U	< 1e-05				
G29C G60C	< 1e-05	< 1e-05	< 1e-05	< 1e-05	< 1e-05
A14U A15U G44A C61G	< 1e-05	< 1e-05	< 1e-05		
G35C G38U C71G	< 1e-05				
G29U A42C G59C	< 1e-05				
G35C G41A U55A	< 1e-05				
U31A A42C U46A	< 1e-05				
A15U C61U C70U	< 1e-05				
G32A G38A	< 1e-05				
A15C G51C	< 1e-05	< 1e-05		< 1e-05	< 1e-05
A15C U57A	< 1e-05			< 1e-05	
G29A G62C	< 1e-05	< 1e-05	< 1e-05		
G32A G37U	< 1e-05	< 1e-05	< 1e-05		
G29C A36G U47A A64G	< 1e-05	< 1e-05	< 1e-05		
U31A G40A A42U	< 1e-05				
A15G A52C U56C C58U C71G	< 1e-05				< 1e-05
A33U C67G	< 1e-05		< 1e-05	< 1e-05	

Variant	self-cleavage kobs at 40 uM GlcN6P (glucosamine-6-phosphate [1]) [s⁻¹]	self-cleavage kobs at 10000 uM GlcN6P (glucosamine-6-phosphate [2]) [s⁻¹]	self-cleavage kobs at 640 uM GlcN6P (glucosamine-6-phosphate [3]) [s⁻¹]	self-cleavage kobs at 160 uM GlcN6P (glucosamine-6-phosphate [4]) [s⁻¹]	self-cleavage kobs at 2500 uM GlcN6P (glucosamine-6-phosphate [5]) [s⁻¹]
A33C G63A	< 1e-05	< 1e-05			
C16A C50A G51A A52U	< 1e-05	< 1e-05			
G29C A36U	< 1e-05		< 1e-05		
A33C A64G	< 1e-05		< 1e-05		
G32A G44C C67U	< 1e-05	0.00011 ± 2.3e-05			0.000148 ± 4.6e-05
C34A A36G A39C	< 1e-05	< 1e-05			< 1e-05
G37U G40U C67G	< 1e-05		< 1e-05		
A33C G62C U65C	< 1e-05				< 1e-05
U31C G35U C70U	< 1e-05				
G32U U46C C58A C71U	< 1e-05				
A33G G60A	< 1e-05	< 1e-05			< 1e-05
G37C A42U C70A	< 1e-05				
A33U A42C	< 1e-05	< 1e-05	< 1e-05	< 1e-05	< 1e-05
A15U A36U	< 1e-05	< 1e-05	< 1e-05	< 1e-05	
U31A A39G	0.000491 ± 7.7e-05	0.0363 ± 0.0095	0.00495 ± 0.0018	0.00202 ± 0.00038	0.0245 ± 0.0078
C34U A52G	< 1e-05	< 1e-05		< 1e-05	
A15G A36G	< 1e-05		< 1e-05	< 1e-05	
A33U C71G	< 1e-05				
U31C G41U U65A	< 1e-05				
G37A C68A	< 1e-05	< 1e-05	< 1e-05	< 1e-05	< 1e-05
G37C A42U	< 1e-05			< 1e-05	
C16U G63U G66A	< 1e-05				
A14G U30C G63A	< 1e-05	< 1e-05			
A33G A36U U46C G63A A64G	< 1e-05	< 1e-05			
A33C C68U	< 1e-05	< 1e-05		< 1e-05	< 1e-05
G35U G38A	< 1e-05	< 1e-05		< 1e-05	

Variant	self-cleavage kobs at 40 uM GlcN6P (glucosamine-6-phosphate [1]) [s⁻¹]	self-cleavage kobs at 10000 uM GlcN6P (glucosamine-6-phosphate [2]) [s⁻¹]	self-cleavage kobs at 640 uM GlcN6P (glucosamine-6-phosphate [3]) [s⁻¹]	self-cleavage kobs at 160 uM GlcN6P (glucosamine-6-phosphate [4]) [s⁻¹]	self-cleavage kobs at 2500 uM GlcN6P (glucosamine-6-phosphate [5]) [s⁻¹]
G35A C61G	< 1e-05	< 1e-05	< 1e-05		< 1e-05
G32C G35C A42G C50U U69G	< 1e-05				
A15G C71A	0.000251 ± 5.9e-05	0.005 ± 0.0016	0.00108 ± 0.00025	0.00102 ± 0.00025	0.006 ± 0.0015
C16U G40C	0.00011 ± 1.1e-05		0.000837 ± 8.6e-05	0.000291 ± 3.7e-05	0.00184 ± 0.00021
G29U C68U	2.51e-05 ± 1e-05	0.000719 ± 7.8e-05	0.00022 ± 2.5e-05	6.87e-05 ± 1e-05	0.000435 ± 5.5e-05
A33G A36U A53U	< 1e-05	< 1e-05			< 1e-05
A15C C61U C67G	< 1e-05	< 1e-05			
C16A G29C	0.000114 ± 1.3e-05	0.00391 ± 0.00075	0.000949 ± 0.00011	0.000215 ± 4.5e-05	0.00217 ± 0.0003
U30G A33C	< 1e-05				
A36C C67U	< 1e-05	< 1e-05			
A14G A15U G29A	3.49e-05 ± 1.3e-05	0.00133 ± 0.00028			
G29C U31C C34U G62C	< 1e-05				
U30A U49C	< 1e-05				
A15U A52C C70U	< 1e-05				
A14G A15G	0.00218 ± 0.00029	0.109 ± 0.035	0.0134 ± 0.0029	0.0049 ± 0.0015	0.0102 ± 0.0027
G32A G38C G59A C61G	< 1e-05				< 1e-05
A15U C50A	< 1e-05			< 1e-05	
A15G C16A U30A G38C	< 1e-05	< 1e-05			
G35C U47C C50A	< 1e-05	< 1e-05			
G29U G38A G44A U47G	< 1e-05	< 1e-05			
G32A A64C	< 1e-05			< 1e-05	
U30C G38U C61U	< 1e-05				
U30G A52U U65C C67G C70G	< 1e-05	< 1e-05			
U30A G59C	< 1e-05	< 1e-05	< 1e-05		< 1e-05
U31A G35U	< 1e-05	< 1e-05	< 1e-05	< 1e-05	< 1e-05
A15C G43C	< 1e-05	< 1e-05	< 1e-05	< 1e-05	< 1e-05

Variant	self-cleavage kobs at 40 uM GlcN6P (glucosamine-6-phosphate [1]) [s⁻¹]	self-cleavage kobs at 10000 uM GlcN6P (glucosamine-6-phosphate [2]) [s⁻¹]	self-cleavage kobs at 640 uM GlcN6P (glucosamine-6-phosphate [3]) [s⁻¹]	self-cleavage kobs at 160 uM GlcN6P (glucosamine-6-phosphate [4]) [s⁻¹]	self-cleavage kobs at 2500 uM GlcN6P (glucosamine-6-phosphate [5]) [s⁻¹]
U30C A64C G66U	< 1e-05	< 1e-05			
G35A C71U	< 1e-05	< 1e-05	< 1e-05	< 1e-05	< 1e-05
A36G U45C U56A	< 1e-05				
G37U A39U C70G	< 1e-05				
A15G A39U G59C G63A G66A	< 1e-05				< 1e-05
A14G U47G C58G C71U	4.07e-05 ± 2e-05				
A14G A42C G44U A48U G62A	< 1e-05				
G29C A64C	< 1e-05		< 1e-05		
G35U G43C	< 1e-05		< 1e-05	< 1e-05	< 1e-05
A14G G51A	< 1e-05				
G37U A48U U56G	< 1e-05		< 1e-05	< 1e-05	< 1e-05
U31G G43C G62C	< 1e-05	< 1e-05			
A15C A39C C61G	< 1e-05	< 1e-05			
G29U G43A G51U C71G	< 1e-05	< 1e-05			
G35C G43U U47G G59C A64U C67U	< 1e-05	< 1e-05			
C16U G40U C68G	< 1e-05	< 1e-05		< 1e-05	
G32U A64C	< 1e-05	< 1e-05	< 1e-05	< 1e-05	< 1e-05
G37U U46G C50U G60U	< 1e-05				< 1e-05
G29U G41A	< 1e-05	0.000164 ± 4e-05	5.62e-05 ± 1.8e-05		0.000155 ± 3.1e-05
A33U U56A	< 1e-05			< 1e-05	
A33G A48G	< 1e-05	< 1e-05	< 1e-05	< 1e-05	< 1e-05
C16U C34A	< 1e-05				
G35A G41U	< 1e-05	< 1e-05	< 1e-05	< 1e-05	< 1e-05
A14G A36C A39U G40C	< 1e-05	< 1e-05			
